# Source: the supplement of paper PMC8728848
# The list shows a part of the results.
# B1: rMpL (Macrolepiota procera) (protein)
# chain: MSTQVSSGRTYKITNVIAGTVIDLSGEDNKSIIGYPYHSGKNQQWTFNWTGKAWTLRSASSGSYLGIEGTPAGGTRLVAVNDPFEWHIWRDEANENAFRIFVPFTNYNLDLSGYGDTTPGTPVQLWWTWEGLHQTWTIDRP
# Assays:
# Experiment in all cases: glycan array binding signal (z-score within array); higher = stronger binding
# Conditions in all cases: glycan notation: IUPAC condensed, linker removed
# [1] = biological target: GlcNAc(b1-2)[GlcNAc(b1-6)]Man(a1-6)[GlcNAc(b1-2)Man(a1-3)]Man(b1-4)GlcNAc(b1-4)GlcNAc
# Procedure, shortened: (§1)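 The binding signal is a Z-score computed within each array and averaged over linkers. Arrays of the same protein sequence at different concentrations or buffers were also averaged together. Data originate from 3228 arrays in the Consortium for Functional Glycomics database, kept only where the protein sequence was available.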
# [2] = biological target: GlcNAc(b1-2)[GlcNAc(b1-6)]Man(a1-6)[GlcNAc(b1-2)Man(a1-3)]Man(b1-4)GlcNAc(b1-4)[Fuc(a1-6)]GlcNAc
# Procedure, shortened: as §1
# [3] = biological target: GlcNAc(b1-2)[GlcNAc(b1-6)]Man(a1-6)[GlcNAc(b1-4)][GlcNAc(b1-2)Man(a1-3)]Man(b1-4)GlcNAc(b1-4)GlcNAc
# Procedure, shortened: as §1
# [4] = biological target: GlcNAc(b1-3)Fuc
# Procedure, shortened: as §1
# [5] = biological target: GlcNAc(b1-3)Gal
# Procedure, shortened: as §1
# [6] = biological target: GlcNAc(b1-3)Gal(b1-3)GalNAc
# Procedure, shortened: as §1
# [7] = biological target: GlcNAc(b1-3)Gal(b1-4)Glc
# Procedure, shortened: as §1
# [8] = biological target: GlcNAc(b1-3)Gal(b1-4)GlcNAc
# Procedure, shortened: as §1
# [9] = biological target: GlcNAc(b1-3)Gal(b1-4)GlcNAc(b1-2)Man(a1-3)[GlcNAc(b1-3)Gal(b1-4)GlcNAc(b1-2)Man(a1-6)]Man(b1-4)GlcNAc(b1-4)GlcNAc
# Procedure, shortened: as §1
# [10] = biological target: GlcNAc(b1-3)Gal(b1-4)GlcNAc(b1-2)Man(a1-3)[GlcNAc(b1-3)Gal(b1-4)GlcNAc(b1-2)Man(a1-6)]Man(b1-4)GlcNAc(b1-4)[Fuc(a1-6)]GlcNAc
# Procedure, shortened: as §1
# [11] = biological target: GlcNAc(b1-3)Gal(b1-4)GlcNAc(b1-2)[GlcNAc(b1-3)Gal(b1-4)GlcNAc(b1-6)]Man(a1-6)[GlcNAc(b1-3)Gal(b1-4)GlcNAc(b1-2)Man(a1-3)]Man(b1-4)GlcNAc(b1-4)GlcNAc
# Procedure, shortened: as §1
# [12] = biological target: GlcNAc(b1-3)Gal(b1-4)GlcNAc(b1-3)Gal(b1-4)GlcNAc
# Procedure, shortened: as §1
# [13] = biological target: GlcNAc(b1-3)Gal(b1-4)GlcNAc(b1-3)Gal(b1-4)GlcNAc(b1-2)Man(a1-3)[GlcNAc(b1-3)Gal(b1-4)GlcNAc(b1-3)Gal(b1-4)GlcNAc(b1-2)Man(a1-6)]Man(b1-4)GlcNAc(b1-4)GlcNAc
# Procedure, shortened: as §1
# [14] = biological target: GlcNAc(b1-3)Gal(b1-4)GlcNAc(b1-3)Gal(b1-4)GlcNAc(b1-2)Man(a1-3)[GlcNAc(b1-3)Gal(b1-4)GlcNAc(b1-3)Gal(b1-4)GlcNAc(b1-2)Man(a1-6)]Man(b1-4)GlcNAc(b1-4)[Fuc(a1-6)]GlcNAc
# Procedure, shortened: as §1
# [15] = biological target: GlcNAc(b1-3)Gal(b1-4)GlcNAc(b1-3)Gal(b1-4)GlcNAc(b1-2)[GlcNAc(b1-3)Gal(b1-4)GlcNAc(b1-3)Gal(b1-4)GlcNAc(b1-6)]Man(a1-6)[GlcNAc(b1-3)Gal(b1-4)GlcNAc(b1-3)Gal(b1-4)GlcNAc(b1-2)Man(a1-3)]Man(b1-4)GlcNAc(b1-4)[Fuc(a1-6)]GlcNAc
# Procedure, shortened: as §1
# [16] = biological target: GlcNAc(b1-3)Gal(b1-4)GlcNAc(b1-3)Gal(b1-4)GlcNAc(b1-3)Gal(b1-4)GlcNAc(b1-2)Man(a1-3)[GlcNAc(b1-3)Gal(b1-4)GlcNAc(b1-3)Gal(b1-4)GlcNAc(b1-3)Gal(b1-4)GlcNAc(b1-2)Man(a1-6)]Man(b1-4)GlcNAc(b1-4)GlcNAc
# Procedure, shortened: as §1
# [17] = biological target: GlcNAc(b1-3)Gal(b1-4)GlcNAc(b1-3)Gal(b1-4)GlcNAc(b1-3)Gal(b1-4)GlcNAc(b1-2)Man(a1-3)[GlcNAc(b1-3)Gal(b1-4)GlcNAc(b1-3)Gal(b1-4)GlcNAc(b1-3)Gal(b1-4)GlcNAc(b1-2)Man(a1-6)]Man(b1-4)GlcNAc(b1-4)[Fuc(a1-6)]GlcNAc
# Procedure, shortened: as §1
# [18] = biological target: GlcNAc(b1-3)Gal(b1-4)GlcNAc(b1-3)Gal(b1-4)GlcNAc(b1-3)Gal(b1-4)GlcNAc(b1-2)[GlcNAc(b1-3)Gal(b1-4)GlcNAc(b1-3)Gal(b1-4)GlcNAc(b1-3)Gal(b1-4)GlcNAc(b1-6)]Man(a1-6)[GlcNAc(b1-3)Gal(b1-4)GlcNAc(b1-3)Gal(b1-4)GlcNAc(b1-3)Gal(b1-4)GlcNAc(b1-2)Man(a1-3)]Man(b1-4)GlcNAc(b1-4)[Fuc(a1-6)]GlcNAc
# Procedure, shortened: as §1
# [19] = biological target: GlcNAc(b1-3)Gal(b1-4)GlcNAc(b1-3)Gal(b1-4)GlcNAc(b1-3)Gal(b1-4)GlcNAc(b1-3)Gal(b1-4)GlcNAc(b1-2)Man(a1-3)[GlcNAc(b1-3)Gal(b1-4)GlcNAc(b1-3)Gal(b1-4)GlcNAc(b1-3)Gal(b1-4)GlcNAc(b1-3)Gal(b1-4)GlcNAc(b1-2)Man(a1-6)]Man(b1-4)GlcNAc(b1-4)GlcNAc
# Procedure, shortened: as §1
# [20] = biological target: GlcNAc(b1-3)Gal(b1-4)GlcNAc(b1-3)Gal(b1-4)GlcNAc(b1-3)Gal(b1-4)GlcNAc(b1-3)Gal(b1-4)GlcNAc(b1-2)Man(a1-3)[GlcNAc(b1-3)Gal(b1-4)GlcNAc(b1-3)Gal(b1-4)GlcNAc(b1-3)Gal(b1-4)GlcNAc(b1-3)Gal(b1-4)GlcNAc(b1-2)Man(a1-6)]Man(b1-4)GlcNAc(b1-4)[Fuc(a1-6)]GlcNAc
# Procedure, shortened: as §1
# [21] = biological target: GlcNAc(b1-3)Gal(b1-4)GlcNAc(b1-3)Gal(b1-4)GlcNAc(b1-3)Gal(b1-4)GlcNAc(b1-3)Gal(b1-4)GlcNAc(b1-2)[GlcNAc(b1-3)Gal(b1-4)GlcNAc(b1-3)Gal(b1-4)GlcNAc(b1-3)Gal(b1-4)GlcNAc(b1-3)Gal(b1-4)GlcNAc(b1-6)]Man(a1-6)[GlcNAc(b1-3)Gal(b1-4)GlcNAc(b1-3)Gal(b1-4)GlcNAc(b1-3)Gal(b1-4)GlcNAc(b1-3)Gal(b1-4)GlcNAc(b1-2)Man(a1-3)]Man(b1-4)GlcNAc(b1-4)[Fuc(a1-6)]GlcNAc
# Procedure, shortened: as §1
# [22] = biological target: GlcNAc(b1-3)Gal(b1-4)GlcNAc(b1-3)Gal(b1-4)GlcNAc(b1-3)GalNAc
# Procedure, shortened: as §1
# [23] = biological target: GlcNAc(b1-3)Gal(b1-4)GlcNAc(b1-3)GalNAc
# Procedure, shortened: as §1
# [24] = biological target: GlcNAc(b1-3)Gal(b1-4)GlcNAc(b1-3)[GlcNAc(b1-3)Gal(b1-4)GlcNAc(b1-3)]GalNAc
# Procedure, shortened: as §1
# [25] = biological target: GlcNAc(b1-3)Gal(b1-4)GlcNAc(b1-6)[Gal(b1-3)]GalNAc
# Procedure, shortened: as §1
# [26] = biological target: GlcNAc(b1-3)Gal(b1-4)GlcNAc(b1-6)[GlcNAc(b1-3)Gal(b1-3)]GalNAc
# Procedure, shortened: as §1
# [27] = biological target: GlcNAc(b1-3)Gal(b1-4)GlcNAc(b1-6)[GlcNAc(b1-3)]Gal(b1-4)GlcNAc
# Procedure, shortened: as §1
# [28] = biological target: GlcNAc(b1-3)GalNAc
# Procedure, shortened: as §1
# [29] = biological target: GlcNAc(b1-3)Man
# Procedure, shortened: as §1
# [30] = biological target: GlcNAc(b1-3)[GlcNAc(b1-4)][GlcNAc(b1-6)]GlcNAc
# Procedure, shortened: as §1
# [31] = biological target: GlcNAc(b1-3)[GlcNAc(b1-6)]Gal(b1-4)GlcNAc
# Procedure, shortened: as §1
# [32] = biological target: GlcNAc(b1-3)[GlcNAc(b1-6)]GalNAc
# Procedure, shortened: as §1
# [33] = biological target: GlcNAc(b1-4)Gal(b1-4)GlcNAc
# Procedure, shortened: as §1
# [34] = biological target: GlcNAc(b1-4)GlcNAc
# Procedure, shortened: as §1
# [35] = biological target: GlcNAc(b1-4)GlcNAc(b1-4)GlcNAc
# Procedure, shortened: as §1
# [36] = biological target: GlcNAc(b1-4)GlcNAc(b1-4)GlcNAc(b1-4)GlcNAc(b1-4)GlcNAc
# Procedure, shortened: as §1
# [37] = biological target: GlcNAc(b1-4)GlcNAc(b1-4)GlcNAc(b1-4)GlcNAc(b1-4)GlcNAc(b1-4)GlcNAc
# Procedure, shortened: as §1
# [38] = biological target: GlcNAc(b1-4)[GlcNAc(b1-6)]GalNAc
# Procedure, shortened: as §1
# [39] = biological target: GlcNAc(b1-6)Gal(b1-4)GlcNAc
# Procedure, shortened: as §1
# [40] = biological target: GlcNAc(b1-6)GalNAc
# Procedure, shortened: as §1
# [41] = biological target: GlcNAc6S(b1-3)Gal(b1-4)GlcNAc
# Procedure, shortened: as §1
# [42] = biological target: Kdn(a2-3)Gal(b1-3)GalNAc
# Procedure, shortened: as §1
# [43] = biological target: Kdn(a2-3)Gal(b1-3)GlcNAc
# Procedure, shortened: as §1
# [44] = biological target: Kdn(a2-3)Gal(b1-4)Glc
# Procedure, shortened: as §1
# [45] = biological target: Kdn(a2-3)Gal(b1-4)GlcNAc
# Procedure, shortened: as §1
binder,measurement,setting,value
B1,glycan array binding signal (z-score),[1],-0.265
same,glycan array binding signal (z-score),[2],-0.033
same,glycan array binding signal (z-score),[3],-0.345
same,glycan array binding signal (z-score),[4],-0.309
same,glycan array binding signal (z-score),[5],-0.345
same,glycan array binding signal (z-score),[6],-0.302
same,glycan array binding signal (z-score),[7],-0.288
same,glycan array binding signal (z-score),[8],-0.335
same,glycan array binding signal (z-score),[9],-0.243
same,glycan array binding signal (z-score),[10],-0.295
same,glycan array binding signal (z-score),[11],-0.287
same,glycan array binding signal (z-score),[12],-0.322
same,glycan array binding signal (z-score),[13],0.133
same,glycan array binding signal (z-score),[14],-0.081
same,glycan array binding signal (z-score),[15],-0.234
same,glycan array binding signal (z-score),[16],-0.27
same,glycan array binding signal (z-score),[17],-0.137
same,glycan array binding signal (z-score),[18],-0.217
same,glycan array binding signal (z-score),[19],-0.252
same,glycan array binding signal (z-score),[20],-0.17
same,glycan array binding signal (z-score),[21],-0.175
same,glycan array binding signal (z-score),[22],-0.263
same,glycan array binding signal (z-score),[23],-0.359
same,glycan array binding signal (z-score),[24],-0.278
same,glycan array binding signal (z-score),[25],-0.343
same,glycan array binding signal (z-score),[26],-0.303
same,glycan array binding signal (z-score),[27],-0.357
same,glycan array binding signal (z-score),[28],-0.376
same,glycan array binding signal (z-score),[29],-0.225
same,glycan array binding signal (z-score),[30],-0.397
same,glycan array binding signal (z-score),[31],-0.345
same,glycan array binding signal (z-score),[32],-0.365
same,glycan array binding signal (z-score),[33],0.163
same,glycan array binding signal (z-score),[34],-0.314
same,glycan array binding signal (z-score),[35],-0.382
same,glycan array binding signal (z-score),[36],-0.298
same,glycan array binding signal (z-score),[37],-0.306
same,glycan array binding signal (z-score),[38],-0.342
same,glycan array binding signal (z-score),[39],-0.173
same,glycan array binding signal (z-score),[40],-0.31
same,glycan array binding signal (z-score),[41],0.303
same,glycan array binding signal (z-score),[42],-0.193
same,glycan array binding signal (z-score),[43],-0.339
same,glycan array binding signal (z-score),[44],-0.476
same,glycan array binding signal (z-score),[45],-0.3
